The results in this text go back to PubChem BioAssay (NCI).

Structures are written as SMILES.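 Step 1: Grow cells in 96-well plates. Step 2: Expose to compound for 48 hours at 5 concentrations. Step 3: Interpolate endpoints linearly; if unreached, use highest concentration. The concentration for 50% growth inhibition is given as GI50. TGI denotes the concentration required for complete inhibition of growth.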 Some results are limits rather than exact numbers.

For the assay, the system named is NCI-H322M lung. Kind of assay: NCI tumour cell line growth inhibition, 48 h.
Take `C=C1CC[C@@H]2[C@]3(C)COC(c4cn[nH]c4-c4ccc(F)cc4)O[C@@H]3CC[C@@]2(C)[C@@H]1C/C=C1/C(=O)OCC1O` (stereo partly drawn): the GI50 was 16 µM and the TGI worked out at 31.9 µM.
The matching figures for `CC1(c2ccccc2)NC(=O)N(CC(=O)Nc2ccc(C(=O)/C=C/c3ccccc3)cc2)C1=O` (stereo not drawn): 25.5 µM and more than 100 µM.
The matching figures for `O=C(Nc1cc(Cl)cc(Cl)c1)Nc1cc(Cl)cc(Cl)c1`: 2.82 µM and more than 100 µM.
The matching figures for `O=C(NO)c1ccc(Cn2ccc3c(NCc4ccccc4)ncnc32)cc1`: 6.16 µM and 48.3 µM.
